In all, about 310,000 compounds went through this assay and about 14,000 (4.5%) showed an effect of 50% or more. The effect is printed as a negative number. The list shows a part of the results. Where a SMILES comes first, the peptide text is derived from it. The star is where a group is joined. Cbz = O=C(OCc1ccccc1)*
Biological target: human ether-à-go-go-related gene (hERG) potassium channel (human, UniProt Q12809)
Assay: primary screen, population patch clamp on CHO cells stably expressing hERG
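Note: peak tail current of the secondary pulse compared with the same well before compound.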

Chain of human ether-à-go-go-related gene (hERG) potassium channel (Q12809 whole entry, looked up): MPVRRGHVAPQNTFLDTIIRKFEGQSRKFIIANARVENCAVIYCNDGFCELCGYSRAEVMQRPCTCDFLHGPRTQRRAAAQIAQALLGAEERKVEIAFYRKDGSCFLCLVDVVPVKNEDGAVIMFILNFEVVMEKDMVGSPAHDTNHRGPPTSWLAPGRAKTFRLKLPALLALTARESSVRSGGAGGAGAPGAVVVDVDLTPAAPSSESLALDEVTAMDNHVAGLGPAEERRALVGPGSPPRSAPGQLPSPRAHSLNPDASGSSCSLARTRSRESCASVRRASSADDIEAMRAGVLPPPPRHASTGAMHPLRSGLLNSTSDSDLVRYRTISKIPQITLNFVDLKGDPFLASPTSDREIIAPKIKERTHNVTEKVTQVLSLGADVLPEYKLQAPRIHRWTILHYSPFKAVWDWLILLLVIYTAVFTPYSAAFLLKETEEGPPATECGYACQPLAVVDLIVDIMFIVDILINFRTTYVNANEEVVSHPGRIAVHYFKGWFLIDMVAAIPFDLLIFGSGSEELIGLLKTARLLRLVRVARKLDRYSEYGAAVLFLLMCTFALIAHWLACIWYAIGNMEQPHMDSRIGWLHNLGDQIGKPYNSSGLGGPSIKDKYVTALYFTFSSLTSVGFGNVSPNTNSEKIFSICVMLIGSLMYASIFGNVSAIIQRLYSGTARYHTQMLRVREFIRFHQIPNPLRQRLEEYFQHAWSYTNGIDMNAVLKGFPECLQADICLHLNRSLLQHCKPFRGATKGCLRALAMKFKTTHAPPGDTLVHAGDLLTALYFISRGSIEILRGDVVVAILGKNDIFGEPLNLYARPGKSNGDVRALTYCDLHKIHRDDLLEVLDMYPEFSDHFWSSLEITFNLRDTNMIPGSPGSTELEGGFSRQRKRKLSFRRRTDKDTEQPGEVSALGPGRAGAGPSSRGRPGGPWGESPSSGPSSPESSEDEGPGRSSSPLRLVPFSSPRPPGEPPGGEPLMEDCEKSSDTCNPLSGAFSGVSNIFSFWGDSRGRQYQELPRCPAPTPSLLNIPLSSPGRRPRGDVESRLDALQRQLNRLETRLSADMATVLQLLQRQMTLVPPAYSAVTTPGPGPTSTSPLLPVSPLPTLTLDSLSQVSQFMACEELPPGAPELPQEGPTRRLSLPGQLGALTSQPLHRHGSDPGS

| Compound | hERG current change (%, negative = inhibition) at 10uM [%] |
| --- | --- |
| COC(=O)c1sccc1NC(=S)N1CCN(c2cccc(C)c2C)CC1 | -14.2 |
| O=C(NCC(c1cccnc1)N1CCOCC1)Oc1ccccc1 (stereo not drawn) | 4.11 |
| Cc1nnc(SCCC(C)C)[nH]c1=O | 16.2 |
| CC(=O)c1ccccc1Oc1cc(NN2CCCCC2)c([N+](=O)[O-])cc1[N+](=O)[O-] | -7.24 |
| CC(=O)OCn1ncc(N2CCOCC2)c(Br)c1=O | 16.5 |
| COC(=O)Nc1ccc(S(=O)(=O)N2CCCc3ccccc32)cc1 | 8.63 |
| C[C@H]1CCC(=O)N(CCSc2ccc(Br)cc2)CC1 | -23.8 |
| CCN(CC(=O)Nc1c(F)cccc1F)C(=O)C1COc2ccccc2O1 (stereo not drawn) | 1.86 |
| CCOC(=O)CSC1=NC(=O)CS1 | 16.1 |
| COc1ccc(-c2nc(C#N)c(N3CCN(c4ccccc4)CC3)o2)cc1 | 5.48 |
| Cc1ccc(S(=O)(=O)Nc2ccc(S(=O)(=O)NCC3CCCO3)cc2)cc1 (stereo not drawn) | 15 |
| O=C(OCc1cccc2ccccc12)C1CC(=O)N(c2ccccc2)C1 (stereo not drawn) | 13 |
| CC(OC(=O)c1ccccc1C(=O)N(C)c1ccccc1)C(=O)Nc1ccccc1[N+](=O)[O-] (stereo not drawn) | -45.5 |
| COc1cccc(C2CC(c3ccc(C(C)C)cc3)n3nc(N)nc3N2)c1 (stereo not drawn) | -4.8 |
| COc1ccc(SC[C@H](Cc2ccccc2)N2CCN(C)CCC2=O)cc1 | -52.2 |
| O=C1/C(=C/c2ccc(F)cc2)SC(=S)N1N1CCOCC1 | 17.8 |
| CCOc1ccc(NC(=O)N2CCC(c3nc4ccccc4o3)CC2)cc1 | -15.6 |
| CCCCN(Cc1ccccc1)C(=O)C1CCN(Cc2sccc2C)CC1.O=C(O)C(=O)O | -68.3 |
| Cc1ccc(Cn2nnnc2CN2CCC(NC(=O)c3ccccc3F)CC2)cc1 | -27.2 |
| CCOc1ccc(CC(=O)NC2CCN(Cc3ccccc3)CC2)cc1 | -6.23 |
| CC1CN(CCS(=O)(=O)c2cc(Cl)ccc2Cl)CC(C)O1 (stereo not drawn) | 1.08 |
| O=C(Cc1ccc(Cl)cc1)Nc1ccc(-c2nnc(-c3ccco3)o2)cc1 | 10.4 |
| Br.CC(=O)Nc1nc(C)c(-c2csc(Nc3ccccn3)n2)s1 | -6.15 |

| Compound | hERG current change (%, negative = inhibition) at 10uM [%] |
| --- | --- |
| O=S(=O)(NCC(c1cccnc1)N1CCOCC1)c1cccs1 (stereo not drawn) | -10.9 |
| COc1ccc(/C(N)=N/OC(=O)CCCN2C(=O)c3ccccc3C2=O)cc1OC | -5.38 |
| COc1cccc(/C=N/Nc2ccc([N+](=O)[O-])cc2)c1O | 12.8 |
| CC1=[N+](CC(=O)NC(C)(C)C)CCc2ccccc21.[Cl-] | 13 |
| COc1ccc(N(CC(=O)NCCSC2CCCCC2)S(C)(=O)=O)c(OC)c1 | -4.87 |
| CCC(O)CNc1nc(-n2nc(C)cc2C)nc2sc3c(c12)CC(C)(C)OC3 (stereo not drawn) | 6.47 |
| COc1ccc(C(=O)n2nc(C)c(Br)c2C)cc1OC | 11.9 |
| CC(C)(C)c1ccc(C(=O)N/C(=C\c2ccco2)C(=O)O)cc1 | 12.7 |
| COc1ccc(C(=O)/C=C/c2ccc(OC)c(COc3ccc(F)cc3)c2)cc1 | 11.5 |
| CC(=O)c1c(COC(=O)c2ccc(C)cc2)nc2ccccc2[n+]1[O-] | 6.12 |
| COc1ccccc1NC(=O)c1c(NC(=O)CCC(=O)O)sc2c1CCCCC2 | 17.8 |
| O=C(NN1CCCCC1)c1cccc2ccccc12 | 22.2 |
| CC(C)(C)C(=O)Nc1c(Br)c(C2CC2)nn1-c1ccccc1 | 12.7 |
| O=S(=O)(c1ccc(S(=O)(=O)N2CCOCC2)cc1)N1CCCC1 | 11.4 |
| CCCCNc1nc2ccccc2n1CC(=O)N1CCc2ccccc2C1 | -49.6 |
| COC(=O)C1=C(C)N(C(C)C)C(=O)C1(NC(C)=O)C(F)(F)F (stereo not drawn) | 5.9 |
| Cc1ccc(-c2nnc(SCC(N)=O)nc2-c2ccc(C)cc2)cc1 | -24.2 |
| Cc1ccsc1C=Nc1ccc(O)cc1 | 1.81 |
| CC1=C(C(=O)NC(C)CCc2ccccc2)C2(CCC(C)CC2)OC1=O (stereo not drawn) | 5.1 |
| CCc1nnc(NC(=O)CSc2nnc(COc3ccccc3C)o2)s1 | 15.2 |
| CCC1CSC(Nc2ccc(C(=O)/C=C/c3ccc(OC)c(OC)c3)cc2)=N1 (stereo not drawn) | -52.4 |
| CCn1c(SCC(=O)N2CCc3ccccc32)nnc1-c1ccncc1 | -7.04 |
| N#Cc1c(-c2ccc(Br)cc2)nc2n(c1=O)CCCS2 | -16.1 |

| Compound | hERG current change (%, negative = inhibition) at 10uM [%] |
| --- | --- |
| O=C1c2ccccc2C(=O)N1CCc1c[nH]c2ccc(O)cc12 | 0.718 |
| O=C(COc1cccc2ccccc12)Nc1ccc(Cl)cc1C(=O)O | 29.6 |
| Cn1cc(P(=O)(N2CCOCC2)N2CCOCC2)cc1P(=S)(N1CCOCC1)N1CCOCC1 | 16.6 |
| c1ccc(CNc2nc(-c3ccccn3)nc3ccccc23)cc1 | -43.5 |
| O=S(=O)(Nc1ccc2c(c1)CCC2)c1cccs1 | -21.2 |
| COc1cc(C(C)=O)ccc1OCC(=O)Nc1ccc2nc(C)sc2c1 | 13.4 |
| CCCn1c(=O)c2c(nc3n2CCCN3Cc2ccccc2)n(C)c1=O | -34.3 |
| CCc1cccc(CC)c1NC(=O)COc1ccccc1C(=O)c1cc(C#N)c(=O)n(C2CCCCC2)c1 | 14.4 |
| CCC(C)(C)C(=O)O | 11.8 |
| COc1ccccc1C(=O)c1c(C)c(CCC#N)n2ccccc12 | 1.62 |
| CCCCOc1ccc(NC(=O)c2cc(F)c(F)cc2Cl)cc1 | -12.9 |
| COc1ccc(-c2[nH]ncc2CN(C)Cc2c(C)n[nH]c2C)c(OC)c1 | 8.4 |
| CNCc1ccccc1OCc1ccc(F)cc1.Cl | -7.08 |
| Cc1cc(C)c(NC(=O)CNC(=O)COC(=O)C2CCN(c3ccc(C(F)(F)F)cn3)CC2)c(C)c1 | -18.4 |
| N#Cc1ccccc1S(=O)(=O)N1CCN(C(=O)C2CCC2)CC1 | 2.8 |
| CC(C)C(=O)NC(=S)Nc1ccc(S(=O)(=O)N(C)Cc2ccccc2)cc1 | 13.5 |
| O=c1c2ccccc2nc(SCc2ccccc2Cl)n1Cc1ccccc1 | 11.7 |
| O=C(NC1CCCCC1)C1CCN(c2cnccn2)CC1 | 13.9 |
| CC(=O)N1CCC(N(CCN2CCOCC2)C(=S)Nc2ccc(C)c(C)c2)CC1 | 1.37 |
| CC(C)Cc1nc(N2CCCCC2)c(C#N)c2c1CCC2 | -11.3 |
| COc1ccc(N=C2NC(=O)/C(=C\c3ccco3)S2)cc1 | 5.24 |
| Cc1cc(C)cc(OCC(=O)Nc2nonc2NC(=O)COc2cc(C)cc(C)c2)c1 | -3.34 |
| Cc1[nH]c2ccccc2c1/C=N/NC(=O)c1cccc([N+](=O)[O-])c1 | 17.1 |

| Compound | hERG current change (%, negative = inhibition) at 10uM [%] |
| --- | --- |
| Cc1cc(N2CCCC2)nc2ccc(NC(=S)NC(C)C)cc12 | -71.6 |
| C=CCOc1c(OC)cc(/C=N/Nc2cccc(C(=O)O)c2)c(Br)c1Br | 39.1 |
| COCc1nnc(NC(=O)c2ccc(NC(=O)C(C)C)cc2)s1 | 9.33 |
| Cc1cccc(Cn2c(=O)n(Cc3ccco3)c(=O)c3ccccc32)c1 | 3.71 |
| N/C(=N\NC(=O)c1sccc1OCc1ccc(Cl)cc1Cl)c1ccccn1 | 10.9 |
| CCOC(=O)N1CCc2c(sc3nc[nH]c(=O)c23)C1 | 4.56 |
| COc1cc(/C=C(\C#N)C(N)=O)ccc1OCc1c(C)no[n+]1[O-] | -34 |
| Cc1occc1C(=O)NN=C1C2CC3CC(C2)CC1C3 | -3.36 |
| O=C(COC(=O)c1cnc(Cl)c(Cl)c1)NC1CCCCCC1 | 14.9 |
| COc1cccc(OCCSc2nc(N)cc(N)n2)c1 | -3.95 |
| O=C(Nc1cccc(-c2nnco2)c1)c1cccs1 | -1.6 |
| CCC(C)C(NC(=O)OCc1ccccc1)C(=O)NC(Cc1ccc(O)cc1)C(=O)OC (stereo not drawn) (Cbz-Ile-Tyr-OMe; configuration not given here) | 9.25 |
| CC(Sc1nnc(COc2ccc(Cl)cc2)n1Cc1ccccc1)C(=O)O (stereo not drawn) | 3.06 |
| CC(=O)N1CCN(CCN=CC2=C(O)CC(C)(C)CC2=O)CC1 | 8.49 |
| CCOC(CCn1c(SCc2ccc([N+](=O)[O-])cc2)nc2ccccc2c1=O)OCC | -39 |
| Cc1cc(NC(=O)CCC(=O)N(CC(=O)NC2CCCC2)Cc2ccc(F)cc2)no1 | 4.02 |
| CCc1ccc(S(=O)(=O)NCc2csc(C)n2)cc1 | 6.32 |
| COc1cccc(CC(=O)NNC(=O)c2ccc3c(c2)OCO3)c1 | 1.7 |
| COc1cc(C)c(Br)cc1S(=O)(=O)NCc1cccs1 | -42.2 |
| Cc1ccc(NC(=O)CSc2nccn2Cc2ccco2)cc1 | 1.81 |
| CS(=O)(=O)N(Cc1ccccc1)c1ccc(C(=O)Nc2ccc(C(N)=O)cc2)cc1 | 12.8 |

From paper PMC4336329 (PLoS ONE, 2015)
